Assay results reported in PubChem BioAssay AID445 (National Center for Advancing Translational Sciences (NCATS), 2006).
In all, about 110,000 compounds went through this assay and about 40 (0.04%) were called active. The shares of active, inactive and inconclusive entries below differ from those in the screen. Calls follow the shape of the dose curve; as a rule, active = well fitted curve in the direction sought with a large enough effect in the signal ratio (not every such curve was filed as active); inconclusive = small, poorly fitted or top-dose-only effect, or a change in a side signal; inactive = flat fitted curve, though single readings scatter; the % refers to the signal ratio. Where the call is inconclusive, the potency comes from a doubtful curve fit.

Assay: IkB Signaling;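 as to IkBa stabilization activation: 0% = basal untreated cells and 100% = reference inhibitor full response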
Conditions: ABC-DLBCL IkBa-CBG/CBR dual luciferase ratio (green luciferase fused to IkBa over red control in OCI-Ly3 lymphoma cells), 4 h; IkBa stabilization activation: at 57.1 µM (top of the series), scaled: untreated 0%, proteasome inhibitor 100% unless noted
In short: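 In this assay, an IκBα–CBG68 fusion accumulates when IKK-driven degradation is blocked; native CBR normalizes for cell number. OCI-Ly3 cells were treated 4 h with compound and doxycycline, then green and red light read after Chroma-Glo addition.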
Potency is read from the fitted curve at half-maximal effect.

Row | SMILES | IkBa stabilization activation | Potency
1 | CCOc1ccc(NC(=O)Cn2cc(C(=O)c3ccc(CC)cc3)c(=O)c3cc4c(cc32)OCO4)cc1 | inconclusive: 0.641% [signal inhibitor] | 
2 | CC(=O)N1CCc2c(sc3c2c(=O)n(-c2cc(Cl)ccc2C)c(=O)n3Cc2ccccc2F)C1 | inconclusive: 4.55% [signal inhibitor] | 
3 | COC(=O)c1cc(Cl)ccc1NC(=O)CSc1ncc(S(=O)(=O)c2ccc(Br)cc2)c(=O)[nH]1 |  | inconclusive: 12.6 µM [signal inhibitor, partial curve]
4 | COc1ccc(C(=O)COC(=O)CCCC(=O)Nc2cc(C(F)(F)F)ccc2Cl)cc1 | inconclusive: 16.9% [signal inhibitor] | 
5 | O=C(Nc1nc2n(n1)C(c1ccc(Cl)cc1)CC(c1ccc(Cl)cc1)N2)c1ccco1 (centres undefined) | inconclusive: 4.42% [signal inhibitor] | 
6 | COc1ccc(OCC(=O)OCc2cc(=O)n3nc(C4CC4)sc3n2)cc1 | inactive | 
7 | CCCCOC(=O)c1ccc(NC(=O)c2cc(-c3cccs3)on2)cc1 |  | inconclusive: 15.8 µM [signal inhibitor, partial curve]
8 | COc1ccc(-n2c(Cc3cccn3C)nnc2SCC(=O)N2CCCc3ccccc32)cc1 | inconclusive: 6.37% [signal inhibitor] | 
9 | CCOc1ccc(OCC)c(NC(=O)CN2CCC(NC(=O)c3cccc(F)c3)CC2)c1 | inconclusive: 2.45% [signal inhibitor] | 
10 | Cc1ccc(Nc2c(-c3ccc(C)s3)nc3ncccn23)cc1 | inconclusive: 2.15% [signal inhibitor] | 
11 | O=C(NCCc1ccc(Cl)cc1)c1cc(-c2ccc(Cl)cc2)n[nH]1 | inconclusive: 3.27% [signal inhibitor] | 
12 | COc1ccccc1CNC(=O)c1ccc(-c2nc(CS(=O)(=O)c3ccc(C)cc3)c(C)o2)cc1 | inconclusive: 0.774% [signal inhibitor] | 
13 | Cc1cccc(C(=O)Nc2sc3c(c2C(=O)NC(C)C)CCCC3)c1 |  | inconclusive: 31.6 µM [signal inhibitor]
14 | Cc1ccccc1Cn1cc(/C=N/n2cnnc2)c2ccccc21 | inconclusive: 2.24% [signal inhibitor] | 
15 | CCOC(=O)c1ccc(NC(=O)CSc2nnc(-c3ccncc3)n2C)cc1 |  | inconclusive: 39.8 µM [signal activator, single point]
16 | CCCCN1CCc2c([nH]c3ccccc23)C1=O |  | inconclusive: 25.1 µM [signal inhibitor, partial curve]
17 | CC(C)(C)OC(=O)N1CCC(c2c(C(=O)N3CCCCC3)cnn2-c2cccc(F)c2)CC1 | inconclusive: 0.632% [signal inhibitor] | 
18 | CCn1c(CN2CCCCCC2=O)nnc1SCc1cnc(-c2ccccc2)s1 | inactive | 
19 | COc1cc(OC)c(NC(=O)c2noc3c2CSc2ccccc2-3)cc1Cl | inconclusive: -0.0532% [signal inhibitor] | 
20 | CCCCn1c(SCC(=O)Nc2ccc(OCC)cc2)nc2ccsc2c1=O | inconclusive: -1.41% [signal inhibitor] | 
21 | CCc1ccccc1NC(=O)[C@@H](c1ccccc1)N1Cc2ccccc2C1=O | inconclusive: -0.0542% [signal inhibitor] | 
22 | Cc1ccc(NC(=O)CCCn2c(=O)c3cccn3c3cccnc32)cc1C | inactive | 

Row | SMILES | IkBa stabilization activation | Potency
23 | Fc1ccc(-c2nnc(Cc3nnc(-c4ccc(F)cc4)o3)o2)cc1 | inactive | 
24 | c1csc(Cn2nnnc2CN2CCN(c3nc4ccccc4s3)CC2)c1 | inconclusive: 6.86% [signal inhibitor] | 
25 | CCOC(=O)c1c(C)[nH]c(C(=O)OCC(=O)Nc2cc(C)ccc2OC)c1C | inactive | 
26 | O=C(Nc1ccc(F)cc1)C1CCN(S(=O)(=O)c2ccc3c(c2)CCCN3C(=O)C2CCC2)CC1 | inconclusive: 3.12% [signal inhibitor] | 
27 | COc1ccccc1CNc1ncncc1-c1ccc2c(c1)OCO2 | inactive: 1.32% [at 11.4 µM, scaled: untreated 0%, proteasome inhibitor 100%] | 
28 | CCOC(=O)c1c(S(=O)(=O)N2CCC(C(=O)Nc3ncccc3C)CC2)c(C)n(C)c1C | inactive | 
29 | CN1CCc2cc(Cl)c(O)cc2[C@@H](c2ccccc2)C1 | inconclusive: -0.54% [signal inhibitor] | 
30 | COc1ccc2c(CNC3CCCCCC3)c(C(=O)O)n(Cc3ccccc3F)c2c1 | inactive | 
31 | CCOC(=O)c1cnc2ccc(C)cc2c1Nc1ccc(N(CC)CC)cc1 | inconclusive: -7.9% [signal inhibitor] | 
32 | Cc1ccc(Cn2c(=O)n(CCCCC(=O)NCc3ccccc3Cl)c(=O)c3ccccc32)cc1 | inactive | 
33 | Cc1cccc(OCC(=O)Nc2ccccc2C(=O)OCc2cc(=O)n3nc(C)sc3n2)c1 | inconclusive: 6.64% [signal inhibitor] | 
34 | Cc1ccc(CCNC(=O)c2cc3c(-c4ccccc4F)nn(C)c3s2)cc1 | inconclusive: 4.78% [signal inhibitor] | 
35 | COc1ccc(OC)c(NC(=O)c2cn(CC(C)C)c(=O)c3cc(OC)c(OC)cc23)c1 | inactive | 
36 | CCOC(=O)c1ccc2nc(C)cc(Nc3ccc(OC(C)C)cc3)c2c1 |  | inconclusive: 25.1 µM [signal inhibitor, single point]
37 | Cc1cccc(C(=O)NCCc2nc3ccccc3n2Cc2ccc(Cl)cc2)c1 | inconclusive: 6.52% [signal inhibitor] | 
38 | CC(=O)Nc1ccc(S(=O)(=O)Nc2nc3ccccc3nc2N2CCCC2)cc1 | inactive | 
39 | Cc1ccccc1N1C(=O)c2cc(S(N)(=O)=O)c(Cl)cc2N[C@H]1C | inactive | 
40 | Cc1ccc(OC(C)C(=O)N2CCN(CCc3ccncc3)CC2)cc1C (centres undefined) | inconclusive: 0.833% [signal inhibitor] | 
41 | Cc1ccc(NC(=O)c2ccc(Cl)cc2Cl)c(C(=O)c2ccccc2)c1 |  | inconclusive: 20 µM [signal inhibitor, partial curve]
42 | COCCCNC(=O)C1CCC(Cn2c(=O)c3sccc3n(C)c2=O)CC1 (centres undefined) | inactive | 
43 | Cc1ccc(-c2nnn(CC(=O)NCc3ccccc3)n2)c(-n2cnnn2)c1 | inactive | 
44 | Oc1ccccc1Nc1nc(NCC2CCCO2)c2ccccc2n1 (centres undefined) | inconclusive: -2.97% [signal inhibitor] | 
